# The other results are listed elsewhere or left out. These are noisy estimates, calculated here from bound and input reads.
# Biological target: T1, Pho4 (S. cerevisiae) (UniProt P07270)
# T1 sequence: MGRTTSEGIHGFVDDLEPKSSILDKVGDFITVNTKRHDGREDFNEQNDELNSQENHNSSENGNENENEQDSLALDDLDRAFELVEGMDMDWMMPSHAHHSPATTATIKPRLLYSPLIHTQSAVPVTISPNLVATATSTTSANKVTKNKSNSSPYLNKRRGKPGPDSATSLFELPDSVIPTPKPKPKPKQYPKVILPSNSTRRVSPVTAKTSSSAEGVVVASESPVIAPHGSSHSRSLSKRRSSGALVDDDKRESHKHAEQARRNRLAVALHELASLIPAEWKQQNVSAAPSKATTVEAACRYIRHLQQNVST
# Assay: relative binding free energy (BET-seq); higher = weaker binding
# Details: reference: library average
row,Sequence,relative binding free energy [kcal/mol]
1,CGCTGCACGTGTGGAG,0.18
2,TGCAACACGTGGGGAG,-0.12
3,TAGGCCACGTGTGTAG,-0.07
4,GTGGGCACGTGCATGA,-0.09
5,GGTAGCACGTGTTGGC,-0.08
6,GGTTTCACGTGGAGGC,0.27
7,TGGTTCACGTGCTGCG,0.17
8,CTTTACACGTGGGTTG,-0.01
9,CTTTACACGTGTGTTG,0.1
10,ATTCGCACGTGAGGCG,0.12
11,TTGGGCACGTGTAGCA,-0.19
12,TAAGGCACGTGCAGTA,-0.17
13,GTGAGCACGTGGTATT,-0.06
14,AATGACACGTGAGGGT,0.2
15,TCCGTCACGTGTAGGG,0.01
16,GGGTCCACGTGCGGGC,-0.03
17,TAGCGCACGTGCTGGG,-0.1
18,GTTGACACGTGTTGGC,-0.1
19,GTTAGCACGTGGGCGT,-0.14
20,GTTTGCACGTGATGTT,0.25
21,GGTTACACGTGTCTTG,0.15
22,TATCGCACGTGGAGTG,-0.15
23,TGGGCCACGTGGGATG,-0.17
24,TCGTTCACGTGTGTCA,0.16
25,GTATGCACGTGCAATG,0.12
26,GTGTGCACGTGGGCCA,-0.09

row,Sequence,relative binding free energy [kcal/mol]
1,GTCTACACGTGTTGTT,0.09
2,AGGTTCACGTGTTGAG,0.16
3,GTAAACACGTGGGTGC,-0.07
4,TTAGACACGTGTTAGT,-0.05
5,TTTTGCACGTGTAGGC,0.09
6,TGGTACACGTGGGGTC,-0.14
7,CGTTGCACGTGCCGGT,-0.07
8,GGGGGCACGTGGTTTT,0.04
9,GAGAGCACGTGTGTTA,-0.01
10,GAGTTCACGTGCGTTA,0.16
11,AATTTCACGTGGCATG,0.14
12,CGAAACACGTGGGGAG,-0.09
13,ATAGGCACGTGTCAGA,-0.06
14,CATTACACGTGGGGAG,-0.14
15,ATGCTCACGTGGGAGT,0.25
16,AGTAACACGTGTGTGT,0
17,CGGTTCACGTGTAAAG,0.27
18,TGAGACACGTGGGCAG,-0.09
19,TGTGACACGTGGGGTT,-0.11
20,TTATTCACGTGTCATG,0.27
21,TGTTCCACGTGTTGCG,0.23
22,GTATACACGTGTATAT,0
23,TTGACCACGTGAGAGG,0.2
24,TTATACACGTGCGAGT,0.03
25,CCGTGCACGTGTTGGG,-0.22
26,CAAGGCACGTGAAGGG,0.09

row,Sequence,relative binding free energy [kcal/mol]
1,GTGTGCACGTGCTTAT,-0.05
2,GAATTCACGTGTGAGG,0.35
3,GAATTCACGTGGTTTG,0.3
4,GGACGCACGTGTGTAG,-0.07
5,AAATGCACGTGTGGAT,0.08
6,TTTTTCACGTGGTGTT,0.16
7,ATGCGCACGTGAGTAG,0.11
8,ATGTTCACGTGCGTTT,0.3
9,TTGACCACGTGGGTGG,-0.23
10,GGGCACACGTGAGGGT,0.21
11,GGATGCACGTGGATAA,0.03
12,TAGTGCACGTGTGACG,-0.09
13,AGGCTCACGTGGGGGC,0.07
14,TATTGCACGTGACGAT,0.24
15,GGGGTCACGTGTTAGA,0.15
16,TTTGGCACGTGCGGAA,-0.09
17,AGACGCACGTGGAGTT,0.07
18,TGTCGCACGTGGTTTG,-0.11
19,GGGTTCACGTGTATTA,0.35
20,GGTTTCACGTGTTTTC,0.36
21,AATTACACGTGGTTTG,0.07
22,TTTGGCACGTGTCGTT,-0.05
23,TTCTTCACGTGTTGCG,0.34
24,AATTACACGTGAATGG,0.22
25,TGTATCACGTGCGTGG,-0.01
26,CTTGTCACGTGGGACA,0.16

row,Sequence,relative binding free energy [kcal/mol]
1,GTGTTCACGTGTGGGA,0.33
2,CCGTTCACGTGATGGG,0.39
3,GTTACCACGTGCTGGG,0
4,GTGGCCACGTGTAGGA,0.03
5,GGGAGCACGTGTATAG,-0.03
6,AGTGACACGTGGCATT,-0.02
7,AAGATCACGTGTTGGA,0.13
8,TGAGCCACGTGTGGGA,0.01
9,GTCAGCACGTGTTGTT,0.13
10,TAAGTCACGTGATCTG,0.22
11,CTCGGCACGTGTAGTT,0.12
12,GGTTGCACGTGTTGCT,0.06
13,CTGCTCACGTGTGGGA,0.25
14,TATGACACGTGGCTTG,-0.23
15,TATTCCACGTGATTTT,0.21
16,CAAGGCACGTGAAGTG,0.25
17,ATAGACACGTGTGGTG,0.03
18,AAGGTCACGTGAGGCG,0.22
19,AATTACACGTGTGGGC,0.21
20,AGAGTCACGTGTGAGG,0.15
21,ATGCACACGTGGTTTG,-0.13
22,TTTAGCACGTGAGCGT,0.1
23,TAGAGCACGTGGTCTT,-0.2
24,AGTTTCACGTGTCGCG,0.25
25,GATTACACGTGTCTGT,0.18
26,GTGTTCACGTGAGAGA,0.5

row,Sequence,relative binding free energy [kcal/mol]
1,GGAAACACGTGGCTGT,0
2,CATGACACGTGTTTTG,-0.02
3,TAGGGCACGTGTGTAT,0.01
4,GGGCTCACGTGTGGTT,0.29
5,GATCACACGTGGGTGT,0.01
6,TTTTTCACGTGAGGGC,0.42
7,TAAGCCACGTGGGGTG,-0.3
8,TTCGTCACGTGAGGGA,0.23
9,GGCTGCACGTGGGAGC,0
10,GGTGCCACGTGTGGTT,0.02
11,GTGTACACGTGGGAGT,0
12,CTGGGCACGTGGGTGA,-0.38
13,CTGGACACGTGTATGT,0.01
14,ACCGGCACGTGCGTGG,-0.07
15,GGATGCACGTGAGGAT,0.31
16,ATCGGCACGTGTGTGG,-0.02
17,TCTTACACGTGGGATG,-0.04
18,GCATGCACGTGTGGGC,0.15
19,GGTGGCACGTGGATCA,-0.05
20,TGACGCACGTGTAAGT,0
21,GGTATCACGTGCGCGT,0.01
22,CGTGGCACGTGTGGCC,-0.02
23,TAGTTCACGTGTAAGG,0.25
24,ACTGTCACGTGGGGGT,-0.18
25,TTCTGCACGTGATGGC,0.17
26,ATTAGCACGTGATTGT,0.01

row,Sequence,relative binding free energy [kcal/mol]
1,CCTGTCACGTGTGTTT,0.09
2,TAGTGCACGTGACTGT,0.02
3,TGTGTCACGTGTGTAT,0.04
4,TTGTTCACGTGATGCT,0.18
5,GTCCTCACGTGTGAGG,0.29
6,TCTTGCACGTGTTCAT,0.1
7,TGCGTCACGTGACTGT,0.3
8,TTTGTCACGTGAGCGG,0.27
9,TCTAGCACGTGAAGTG,0.16
10,AGGCGCACGTGGATTA,-0.03
11,GGTTGCACGTGTACTA,0.13
12,ATTTGCACGTGTAACG,0.08
13,GCTGTCACGTGTTCGG,0.04
14,GTTGTCACGTGAGGAA,0.31
15,TCAGGCACGTGTAGTA,0.01
16,GATGTCACGTGATAGA,0.29
17,TGCCGCACGTGGTTTG,-0.17
18,CTGGCCACGTGTGGTG,-0.09
19,AGTCTCACGTGGTGTG,0.17
20,GGAGGCACGTGTGTGA,-0.09
21,GGATTCACGTGGCTGA,0.3
22,CGTAGCACGTGGTGAG,-0.19
23,GTGCGCACGTGGGAAT,-0.08
24,CGTTTCACGTGAGGGC,0.23
25,TTGTGCACGTGTAGCG,0.04
26,AGTCTCACGTGAGGGG,0.29

row,Sequence,relative binding free energy [kcal/mol]
1,ATTCTCACGTGCGGTG,0.13
2,ATGTTCACGTGCTGAG,0.25
3,CGTAGCACGTGGGCGT,-0.18
4,ATCCACACGTGGGTGT,-0.06
5,CTGTGCACGTGCGTTA,-0.08
6,ATTTACACGTGTGTCA,0.08
7,AATTTCACGTGCGTTT,0.17
8,GTGTACACGTGGTGTT,0.02
9,AACGACACGTGGAGGT,0.05
10,TCATTCACGTGTGGTA,0.18
11,ATTTGCACGTGACTGA,0.25
12,GTAGACACGTGAAGTT,0.35
13,GAAAACACGTGTGGGT,0.24
14,TGTTTCACGTGATACG,0.16
15,GGCGCCACGTGTTGTG,-0.06
16,TGGCTCACGTGACGTG,0.44
17,TTTCTCACGTGTGGGT,0.23
18,TTGTCCACGTGTTTGA,-0.01
19,TCAATCACGTGTTTTA,0.1
20,GTGAGCACGTGATTGG,0.23
21,GGGAGCACGTGGGGAC,-0.11
22,GCAGACACGTGGGGTG,-0.22
23,TGCATCACGTGTGGGC,0.19
24,ATGGTCACGTGTGCAG,0.13
25,GGGATCACGTGACTGT,0.22
26,TTTTACACGTGCATTG,0.05

row,Sequence,relative binding free energy [kcal/mol]
1,TGGAACACGTGGGAGG,-0.06
2,GAGTTCACGTGGGCGT,0.31
3,TGTGTCACGTGATGAG,0.18
4,GTGGTCACGTGATAGA,0.28
5,GGTTCCACGTGTGTTA,0.22
6,GGTTGCACGTGGATTC,0.07
7,AAGACCACGTGTAGGG,0.06
8,GTGCGCACGTGGGGGC,-0.26
9,CAGGTCACGTGTTGAG,0.07
10,AGTTTCACGTGTCCGG,0.22
11,ATTAGCACGTGGTATA,-0.17
12,TGTCTCACGTGGGTTC,0.13
13,CTTGCCACGTGTTTTT,-0.04
14,TTTGACACGTGTAGTG,0.03
15,TAGTGCACGTGTTTTT,0.07
16,AATTGCACGTGGTGAA,0.07
17,TTGTTCACGTGGGTTC,0.24
18,GGCGTCACGTGATAGG,0.27
19,TAGATCACGTGTCGTA,0.2
20,GTATACACGTGTGCGT,-0.08
21,GTATTCACGTGTCGGG,0.25
22,TTTGACACGTGGGGTC,0
23,ATGATCACGTGGATGA,0.17
24,CTAGGCACGTGGGTGG,-0.26
25,ATGGACACGTGTGGAG,0.07
26,GAGGGCACGTGTGATC,0.06

row,Sequence,relative binding free energy [kcal/mol]
1,TTGGGCACGTGTGCAT,-0.06
2,ATGTTCACGTGCTGGA,0.14
3,CGTTCCACGTGAAGGT,0.36
4,ATTTTCACGTGGCAGT,0.26
5,TTATTCACGTGAGGCT,0.19
6,GAGTTCACGTGAAGTG,0.33
7,ATTGGCACGTGGAGAA,-0.08
8,AGTAGCACGTGTTAAT,0.02
9,GATGGCACGTGCAATG,0.02
10,TTGGGCACGTGCTGTA,-0.25
11,GTGTACACGTGTGTTG,0
12,GATAACACGTGGCGGT,0.03
13,TTGGACACGTGTTAAA,0.2
14,ATGTTCACGTGTGGCA,0.36
15,TTTATCACGTGGGGGG,0.05
16,AGTAACACGTGGTAGA,0.05
17,TTGGCCACGTGTGAGT,0.08
18,GAGGGCACGTGTTTTA,-0.01
19,CGGGGCACGTGGGTAG,-0.25
20,TTTTGCACGTGATGAG,0.15
21,TAACTCACGTGTGTGT,0.13
22,AATAGCACGTGGCTTG,0
